# Data: the supplement of paper PMC12217912
# The list shows a part of the results. Sequences were assembled here from the parent chain. Inactive controls read about 0.05.
# B1: TEV protease; numbered along this chain (parent)
# chain: MGESLFKGPRDYNPISSSICHLTNESDGHTTSLYGIGFGPFIITNKHLFRRNNGTLVVQSLHGVFKVKDTTTLQQHLVDGRDMIIIRMPKDFPPFPQKLKFREPQREERICLVTTNFQTKSMSSMVSDTSCTFPSGDGIFWKHWIQTKDGQCGSPLVSTRDGFIVGIHSASNFTNTNNYFTSVPKNFMELLTNQEAQQWVSGWRLNADSVLWGGHKVFMVKPEEPFQPVKEATQL
# Variants of: B1
# Assay: raw area under fraction-flipped curve 0-4 h after induction (AUC4h, not background-subtracted), DNA-recorder readout of cleavage of the substrate (dimensionless); higher = more cleavage of the substrate by the protease variant
# Details: temperature: 34 °C; time window: 0-4 h after rhamnose induction
# 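Note: Bxb1 expression induced with 0.2% (w/v) L-rhamnose at OD600 near 0.5, cultures sampled hourly, flipped fraction per protease–substrate barcode pair counted by paired-end Illumina sequencing.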
Variant,area with substrate ENAYFQS,area with substrate ENCYFQS,area with substrate ENDYFQS,area with substrate ENEYFQS,area with substrate ENFYFQS,area with substrate ENGYFQS,area with substrate ENHYFQS,area with substrate ENIYFQS,area with substrate ENKYFQS,area with substrate ENMYFQS,area with substrate ENNYFQS,area with substrate ENPYFQS,area with substrate ENQYFQS,area with substrate ENSYFQS,area with substrate ENTYFQS,area with substrate ENVYFQS,area with substrate ENWYFQS,area with substrate ENRYFQS,area with substrate ENYYFQS
F187E,0.0444,0.0638,0.0634,0.0501,0.0511,0.0561,0.0556,0.0403,0.0498,0.0568,0.068,0.0498,0.0517,0.0562,0.0654,0.0432,0.0048,,
F187I,0.0602,0.0639,0.0562,0.0566,0.0765,0.0857,,0.0886,0.0611,0.0711,,0.0571,0.0594,0.0639,0.0626,0.0991,,0.0482,
Q194R,0.0595,0.0828,,0.063,0.0572,,,0.119,0.0697,,0.064,,0.0551,0.0657,0.0684,0.0746,0.0296,,
A196L,0.0572,0.0764,0.0591,0.0721,0.0577,0.0655,,,,,0.0568,0.0535,0.0615,0.0643,0.07,0.0774,0.0568,0.0591,0.0621
Q197G,0.086,,0.0621,0.0646,0.0549,,,0.113,0.0591,,,,0.0766,,,,,,
Q197K,0.0485,,0.0652,0.0624,,0.0617,0.0628,,,,0.058,0.0708,0.0562,0.063,0.0617,0.0853,,,0.0557
Q198I,0.0599,0.0656,0.0664,0.0654,0.067,0.0658,,,,,0.0581,0.0498,0.0649,0.0409,0.0423,0.0675,0.0053,0.0643,
V200N,0.076,,0.067,0.0637,0.0728,,,,0.0614,,,,,0.0562,,0.0641,0.0652,,
S201K,0.0695,0.0797,0.0643,,,0.0412,,,0.0616,0.0845,0.0616,0.0762,,0.057,,0.0823,,,
S201W,0.0716,0.0663,0.0649,0.0593,0.0657,0.0615,0.0468,0.0827,0.0705,,0.0534,0.0463,0.0537,0.0576,0.0743,0.059,0.0389,0.0526,
G202A,0.0634,0.074,0.0611,0.062,0.0554,0.0752,,0.066,0.0504,,0.0655,0.056,0.0596,0.0615,0.0649,0.0607,0.0483,0.0525,
R204T,0.069,0.0633,0.0616,0.0661,0.064,0.0794,0.0638,,0.0647,0.0867,0.0518,0.0671,0.0595,0.0571,0.0579,0.0827,0.0548,,0.0674
L205W,0.0528,,0.0575,0.0622,,0.0709,,0.0868,,0.0658,,0.0598,0.0738,0.0456,,0.0459,,0.0392,
N206G,0.0566,,0.0684,0.0501,0.0513,,,,0.0494,0.0733,0.0591,,0.0543,,0.0566,,0.0605,0.0569,0.0487
N206H,0.06,0.0606,0.0606,0.0701,0.064,0.0606,0.0584,0.103,,,0.0626,0.0753,0.0693,0.0583,0.0526,0.0715,,0.0523,0.0565
W212K,0.058,0.0565,0.026,0.0551,0.0593,,,0.0559,0.0468,,0.0584,0.0597,0.0437,0.0493,0.0579,0.0554,0.0604,0.0506,0.0668
G213F,0.0518,0.0476,0.0542,0.0857,,0.0534,0.034,,0.0578,,,0.0515,0.057,0.057,0.0458,,,0.0669,0.0421
H215W,0.0588,0.0469,0.0795,0.0441,0.0429,0.062,0.0615,0.0568,,,0.0549,0.0655,0.0473,0.0619,0.0533,0.06,,0.0566,0.0381
V217Q,0.0682,0.0512,0.062,0.0705,,0.0531,0.0654,0.0619,0.0581,,,,0.0618,0.0488,,0.0632,,0.0808,0.0564
F218P,0.0724,,,0.0703,,0.0626,,,0.0594,0.076,0.0641,,0.0884,0.0695,0.0633,,,0.0511,
M219C,0.0571,,,0.0236,,0.0625,,,,,0.0592,0.0471,,0.0687,0.0505,,0.0145,,
M219V,0.0536,0.069,0.0572,0.0611,0.0472,0.0607,0.05,,,,0.0588,0.0569,0.0617,0.0606,0.0713,0.0731,0.0515,0.0593,
V220P,0.0432,0.0561,0.0612,0.0759,0.0607,0.0597,0.07,0.0748,0.0831,0.0888,0.0609,,0.0628,0.0615,0.0592,0.0557,0.0594,0.0559,
K221I,0.0469,0.061,0.0579,0.0753,0.0444,0.0797,,,,0.0689,0.0783,,0.0656,0.043,0.055,0.0614,0.0521,0.0574,0.0385
P222C,0.065,0.0544,,0.0584,0.0783,0.0595,,0.0829,0.0532,,,0.0741,0.0833,0.0479,0.0508,0.0707,,0.0516,0.0498
E223T,0.0626,0.0646,0.0609,0.0716,0.0594,,,0.0705,,,0.0618,0.0718,0.0552,0.0533,0.0782,0.0728,0.0622,0.0495,0.0506
